PubChem BioAssay AID504333 (National Center for Advancing Translational Sciences (NCATS), 2011)
About 16,000 (4.4%) of roughly 360,000 compounds were called active. Inconclusive results, whose numbers are uncertain, are shown with a selection of clear calls. Calls follow the shape of the dose curve; as a rule, active = well fitted inhibition curve with a large enough effect; inconclusive = small, poorly fitted or top-dose-only effect; inactive = no such curve, though single readings can be large or run the other way. Potencies of inconclusive entries are doubtful fits and often do not repeat.

target: Bromodomain adjacent to zinc finger domain protein 2B (Homo sapiens) (UniProt Q9UIF8); assay: qHTS Assay for Inhibitors of BAZ2B; settings: AlphaScreen BAZ2B-H3K14Ac peptide displacement; activity change, negative = inhibition: at 114 µM (top of the series); also: nearly all actives have a fitted effect of over 60% in size
Sequence of UniProt Q9UIF8 (Q9UIF8 whole entry, looked up, the tested form may be a part): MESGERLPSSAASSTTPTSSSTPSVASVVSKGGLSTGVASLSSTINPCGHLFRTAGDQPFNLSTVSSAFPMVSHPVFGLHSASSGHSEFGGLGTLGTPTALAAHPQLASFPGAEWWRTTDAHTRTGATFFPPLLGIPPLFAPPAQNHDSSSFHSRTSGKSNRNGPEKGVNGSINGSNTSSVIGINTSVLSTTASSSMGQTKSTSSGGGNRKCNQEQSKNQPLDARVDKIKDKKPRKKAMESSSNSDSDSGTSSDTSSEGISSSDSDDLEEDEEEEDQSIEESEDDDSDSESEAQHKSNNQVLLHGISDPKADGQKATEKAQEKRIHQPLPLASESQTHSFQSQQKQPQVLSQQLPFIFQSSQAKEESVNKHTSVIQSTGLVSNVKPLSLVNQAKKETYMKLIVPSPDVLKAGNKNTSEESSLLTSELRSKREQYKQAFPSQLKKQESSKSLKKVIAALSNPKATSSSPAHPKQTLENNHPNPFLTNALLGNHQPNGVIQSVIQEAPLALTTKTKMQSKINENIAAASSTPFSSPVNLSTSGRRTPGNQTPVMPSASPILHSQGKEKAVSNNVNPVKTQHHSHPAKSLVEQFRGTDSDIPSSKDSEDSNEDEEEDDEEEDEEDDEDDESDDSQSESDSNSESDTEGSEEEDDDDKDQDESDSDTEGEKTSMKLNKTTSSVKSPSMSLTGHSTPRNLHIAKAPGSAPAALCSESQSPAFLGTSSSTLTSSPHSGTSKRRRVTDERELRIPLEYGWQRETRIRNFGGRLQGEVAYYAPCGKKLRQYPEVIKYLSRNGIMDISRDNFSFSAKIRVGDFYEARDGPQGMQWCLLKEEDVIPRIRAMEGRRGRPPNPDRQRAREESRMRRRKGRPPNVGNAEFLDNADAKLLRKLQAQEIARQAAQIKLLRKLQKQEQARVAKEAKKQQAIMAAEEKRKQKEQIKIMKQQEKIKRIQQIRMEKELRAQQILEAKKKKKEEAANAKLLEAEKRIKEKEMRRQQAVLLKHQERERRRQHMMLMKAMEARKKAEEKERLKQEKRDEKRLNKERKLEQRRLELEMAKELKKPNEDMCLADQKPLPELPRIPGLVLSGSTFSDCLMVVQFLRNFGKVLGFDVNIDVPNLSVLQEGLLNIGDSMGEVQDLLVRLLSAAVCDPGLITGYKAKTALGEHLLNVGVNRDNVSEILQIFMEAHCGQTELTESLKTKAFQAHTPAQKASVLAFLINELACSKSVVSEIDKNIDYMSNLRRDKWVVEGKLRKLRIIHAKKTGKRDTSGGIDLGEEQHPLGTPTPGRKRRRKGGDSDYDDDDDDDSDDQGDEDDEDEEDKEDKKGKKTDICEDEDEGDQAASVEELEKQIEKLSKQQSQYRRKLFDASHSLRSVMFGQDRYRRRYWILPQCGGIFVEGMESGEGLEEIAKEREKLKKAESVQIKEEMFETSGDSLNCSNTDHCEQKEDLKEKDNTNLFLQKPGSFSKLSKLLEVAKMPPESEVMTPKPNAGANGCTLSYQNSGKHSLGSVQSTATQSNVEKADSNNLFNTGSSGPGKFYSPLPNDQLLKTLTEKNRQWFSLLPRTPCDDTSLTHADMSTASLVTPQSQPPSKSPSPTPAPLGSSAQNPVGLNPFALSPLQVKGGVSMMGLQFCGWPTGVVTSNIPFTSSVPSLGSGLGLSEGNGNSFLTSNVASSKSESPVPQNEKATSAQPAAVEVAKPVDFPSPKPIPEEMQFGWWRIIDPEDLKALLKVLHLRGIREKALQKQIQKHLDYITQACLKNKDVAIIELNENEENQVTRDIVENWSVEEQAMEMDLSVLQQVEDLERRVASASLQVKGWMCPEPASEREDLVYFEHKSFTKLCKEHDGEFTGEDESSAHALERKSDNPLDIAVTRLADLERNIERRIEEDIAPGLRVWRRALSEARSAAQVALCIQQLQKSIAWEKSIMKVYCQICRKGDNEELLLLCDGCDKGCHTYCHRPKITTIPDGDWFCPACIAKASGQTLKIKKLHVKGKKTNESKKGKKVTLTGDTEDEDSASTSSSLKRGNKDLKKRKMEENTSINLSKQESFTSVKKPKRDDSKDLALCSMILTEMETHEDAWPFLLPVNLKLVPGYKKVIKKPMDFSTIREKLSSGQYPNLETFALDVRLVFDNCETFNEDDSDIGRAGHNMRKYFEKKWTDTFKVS
Method in brief: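 BAZ2B 50 nM plus b-H3(5-23)K14Ac 50 nM, PBS pH 7.4/0.01% Tween-20, 30 min RT; compound added (max 110 uM), 30 min RT; streptavidin donor/Ni-chelate acceptor beads 10 ug/mL final, 20 min dark; AlphaScreen read.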
% is scaled to controls: 0 for no effect and ±100 for the full control effect; potency is read from the fitted curve at half-maximal effect; tags tell the direction and shape of the fitted curve.

Row | Compound | Potency | activity change, negative = inhibition
1 | CC(C)CC(=O)N1CCN(Cc2cccc(F)c2)CC1 | active: 56.2 µM | 
2 | CCOc1cc(/C=C2\SC(N3CCCCC3)=NC2=O)ccc1O |  | inactive: 4.95%
3 | Cc1nn2c(-c3ccc(Cl)cc3Cl)nnc2s1 |  | inactive: -4.11%
4 | COc1ccc(CNC(=O)CCc2cn(Cc3cc(C)ccc3C)c3ccccc23)cc1OC | inconclusive: 70.8 µM [inhibitor, single point] | 
5 | C=CCON1C(=O)c2ccccc2C1=O | inconclusive: 3.98 µM [inhibitor, full curve, poor fit] | 
6 | Cc1sc(NC(=O)CN2CCCC2)nc1-c1ccc2c(c1)CCN2C(=O)c1cccc(F)c1 | inconclusive: 44.7 µM [inhibitor, partial curve] | 
7 | Cc1cccc(N2CCN(C(=O)c3cc4c(=O)n(C)c5ccccc5c4n3C)CC2C)c1 (stereo not given) | inconclusive: 79.4 µM [inhibitor, single point] | 
8 | COc1ccc(-c2cc(C(=O)N3CCN(c4ccccc4)CC3)no2)cc1OC | inconclusive: 79.4 µM [inhibitor, single point] | 
9 | Cc1c(NS(=O)(=O)c2ccc3c(c2)c(=O)n(C)c(=O)n3C)c(=O)n(-c2ccccc2)n1C | inconclusive: 31.6 µM [inhibitor, single point] | 
10 | COc1ccc(NC(=O)c2c(C(=O)Nc3ccccc3)sc3nc(C)cc(=O)n23)cc1 |  | inactive: -3.59%
11 | CC(=O)c1sc2nc(-c3ccco3)ccc2c1N | active: 50.1 µM | 
12 | Clc1ccc(-c2ccc(CNCc3ccccn3)o2)cc1 | active: 20 µM | 
13 | COC(=O)c1ccc(C2C(C(C)=O)=C(O)C(=O)N2CCO)cc1 (stereo not given) | inconclusive: 89.1 µM [inhibitor, single point] | 
14 | CCOC(=O)N1CCc2c(sc(NCc3sccc3C)c2C(=O)Nc2cc(OC)ccc2OC)C1 | inconclusive: 35.5 µM [inhibitor, partial curve] | 
15 | CCOc1ccccc1C(=O)NCC(=O)O | inconclusive: 89.1 µM [inhibitor, single point] | 
16 | COc1ccc(C)cc1S(=O)(=O)N(CC(=O)NC1CCCC1)c1ccc(F)cc1 |  | inactive: -0.125%
17 | Cc1cc(N/N=C(/CCC(=O)O)C(=O)O)nc2ccccc12 | inconclusive: 89.1 µM [inhibitor, single point] | 
18 | O=C(Nc1nnc(C2=COCCO2)o1)c1cccc(C(F)(F)F)c1 | inconclusive: 89.1 µM [inhibitor, single point] | 
19 | Cc1nc2c(C(=O)NCc3ccccc3Cl)c[nH]n2c(=O)c1Cc1cccc(Cl)c1 | inconclusive: 70.8 µM [inhibitor, single point] | 
20 | Cc1ccc(NC(=O)c2cc(-c3cc(C)c(C)cc3O)n[nH]2)cc1C |  | inactive: -2.94%
21 | Cc1c(Cl)cccc1NC(=O)CC(c1cccs1)N1Cc2ccccc2C1=O (stereo not given) |  | inactive: -17.8%
22 | C#CCOCCOCCOCCNc1nc(N2CCN(C(=O)C([C@@H](C)CC)n3cc(C(N)CO)nn3)CC2)nc(N2CCN(C(=O)[C@H](CCC(=O)O)n3cc(C(N)CC(C)C)nn3)CC2)n1 (stereo not given in full) | active: 50.1 µM | 
23 | CCC(C)NC(=O)CN(c1cc(Cl)ccc1OC)S(C)(=O)=O (stereo not given) | inconclusive: 89.1 µM [inhibitor, single point] | 

Row | Compound | Potency | activity change, negative = inhibition
24 | CCOC(=O)C1=C(C)OC(N)=C(C#N)C1c1cc2c(cc1[N+](=O)[O-])OCO2 (stereo not given) | inconclusive: 89.1 µM [inhibitor, single point] | 
25 | CN1CC(C(=O)Nc2ccc(F)c(Cl)c2)CC1=O (stereo not given) | inconclusive: 89.1 µM [inhibitor, single point] | 
26 | CCOC(=O)C1CCN(c2c(C(=O)c3ccc(OCC)cc3)cnc3ccc(OC)cc23)CC1 | inconclusive: 35.5 µM [inhibitor, partial curve] | 
27 | CCn1c(=NC(=O)c2ccc(S(=O)(=O)N3CCCCC3)cc2)sc2cccc(OC)c21 |  | inactive: 10.8%
28 | Cc1cc(OCCCSc2nc(-c3ccc(C(C)(C)C)cc3)nc3cc(=O)[nH]n23)ccc1Cl | active: 28.2 µM | 
29 | CCc1ccc(NC(=O)CSc2ccc3nnc(CCNS(=O)(=O)c4ccc(OC)cc4)n3n2)cc1 | inconclusive: 79.4 µM [inhibitor, single point] | 
30 | CCOC(=O)c1cnc(-n2nc(C)cc2C)[nH]c1=O | active: 39.8 µM | 
31 | O=c1c2ccccc2nc(SCc2ccc([N+](=O)[O-])cc2)n1-c1ccc(Cl)cc1 | inconclusive: 79.4 µM [inhibitor, single point] | 
32 | Cc1ccc(-n2cc(S(=O)(=O)c3ccc(C)cc3)[nH]c2=O)cc1 | inconclusive: 31.6 µM [inhibitor, partial curve] | 
33 | Fc1ccc(CN2CCC(Cc3ccccc3)CC2)cc1F | inconclusive: 50.1 µM [inhibitor, partial curve] | 
34 | Oc1c(Br)cc(Br)cc1CNc1ccc(F)cc1 | active: 39.8 µM | 
35 | COc1cc(/C=C2\SC(=S)N(NC(=O)c3ccc(O)cc3)C2=O)ccc1O | active: 39.8 µM | 
36 | Cc1ccc(CN2CCN(c3ncccn3)CC2)c(C)c1 | active: 50.1 µM | 
37 | CC1Cc2nc(SCC(=O)N3CCN(c4ccccc4)CC3)n(CCc3ccccc3)c(=O)c2S1 (stereo not given) |  | inactive: -30.1%
38 | Cc1cccc(-c2nnc3n2N=C(c2ccccc2Br)CS3)c1 | inconclusive: 89.1 µM [inhibitor, single point] | 
39 | COc1ccccc1NC(=O)Cn1c(=O)n(Cc2ccco2)c(=O)c2oc3ccccc3c21 |  | inactive: -11.6%
40 | Cc1ccc(NC(=O)c2sccc2C)nc1 |  | inactive: -2.06%
41 | COC(=O)C(C)Sc1nnc2cc(C)c3cc(C)cc(C)c3n12 (stereo not given) | inconclusive: 89.1 µM [inhibitor, single point] | 
42 | COc1cc(/C=C(/C#N)C(=O)Nc2ccccc2)c(Br)cc1OCc1ccc(C(=O)O)cc1 | inconclusive: 50.1 µM [inhibitor, partial curve] | 
43 | COc1ccc(NC(=O)c2sccc2-n2cccc2)cc1 | inconclusive: 70.8 µM [inhibitor, single point] | 
44 | Cc1cc(C)c(S(=O)(=O)Nc2ncn[nH]2)cc1C | inconclusive: 79.4 µM [inhibitor, single point] | 
45 | CN1CCN(NC(=O)CN2C(=O)/C(=C/c3ccccc3Cl)SC2=S)CC1 | inconclusive: 50.1 µM [inhibitor, partial curve] | 
